Where “and” joins values, the source holds several entries; their conditions need not be identical. Identical values can stand only once. The whole screen tested about 280,000 compounds, of which about 100 (0.036%) were called active. Inconclusive means that the source gave no clear call. Such entries were picked first, then a sample of the others. Calls follow the shape of the dose curve; as a rule, active = well fitted inhibition curve with a large enough effect in the signal ratio, with a control signal flat (not every such curve was filed as active); inconclusive = small, poorly fitted or top-dose-only effect, or effect the other way, or a change in a side signal; inactive = no such curve, though single readings can be large or run the other way; the % refers to the signal ratio. Potencies of inconclusive entries are doubtful fits and often do not repeat. “Side channel” marks fits to a control or component signal instead of the main read-out.
The compounds below were run against Muscleblind-like protein 1 (Homo sapiens) (UniProt Q9NR56) (assay: qHTS Assay for Inhibitors of MBNL1-poly(CUG) RNA binding). Conditions: TR-FRET MBNL1-His/biotin-(CUG)12 binding, 665/545 ratio; activity change, negative = inhibition: at 57.5 µM (top of the series).
UniProt Q9NR56, sequence (Q9NR56 whole entry, looked up): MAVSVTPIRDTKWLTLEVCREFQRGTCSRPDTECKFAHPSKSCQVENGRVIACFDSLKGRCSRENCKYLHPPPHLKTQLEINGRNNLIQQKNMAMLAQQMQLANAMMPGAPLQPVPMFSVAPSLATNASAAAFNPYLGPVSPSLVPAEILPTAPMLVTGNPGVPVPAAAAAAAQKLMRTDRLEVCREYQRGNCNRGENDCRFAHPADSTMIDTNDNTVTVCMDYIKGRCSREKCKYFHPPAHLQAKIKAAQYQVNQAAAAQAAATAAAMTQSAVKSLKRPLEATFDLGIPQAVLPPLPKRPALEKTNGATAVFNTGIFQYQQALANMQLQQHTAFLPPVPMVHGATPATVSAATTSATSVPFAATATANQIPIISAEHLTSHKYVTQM
Summary of the method: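 TR-FRET between His-tagged MBNL1 and biotin-(CUG)12 RNA, detected with Tb anti-His antibody (0.055 ng/ul) and streptavidin-XL665 (5 nM), 60 min at room temperature. Compounds titrated 92 nM to 58 uM; 665/545 nm ratio normalized to buffer and complex controls.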
% is scaled to controls: 0 for no effect and ±100 for the full control effect; potency is read from the fitted curve at half-maximal effect; tags tell the direction and shape of the fitted curve or compound fluorescence and quenching.

| SMILES | activity change, negative = inhibition | Potency |
| --- | --- | --- |
| COc1cccc(NC(=O)CSc2nc3n[nH]c(C)c3c(=N)n2-c2cccc(OC)c2)c1 | inactive: -3.65% |  |
| Cc1cc(C)nc(SCC(=O)N/N=C/c2cccc([N+](=O)[O-])c2)n1 | inactive: 11% |  |
| COc1cc(SC#N)ccc1N=Cc1c(C)[nH]n(-c2cccc3ccccc23)c1=O |  | inconclusive: 11.2 µM [quencher, side channel, partial curve] |
| CCCCCC(O)(CCN1CCCCC1)c1ccc(OCC)cc1 (stereo unspecified) | inactive: -0.0583% |  |
| COc1ccc([N+](=O)[O-])cc1N/C(=N/S(=O)(=O)c1ccccc1)c1ccccc1 |  | inconclusive: 12.6 µM [quencher, side channel, partial curve] |
| CSC(=NC#N)N1CCN(c2ccc([N+](=O)[O-])cc2)CC1 |  | inconclusive: 14.1 µM [quencher, side channel, partial curve] |
| CC(=O)NCCc1nc2cc(NC(=O)COc3cccc(C)c3)ccc2n1C | inactive: -1.46% |  |
| CNC(=O)N(O)C1N(/N=C/c2cc(Br)ccc2O)C(=S)SC1(C)C (stereo unspecified) |  | inconclusive: 31.6 µM [quencher, side channel, single point] |
| CN(c1ccc([N+](=O)[O-])cc1C(=O)Nc1ccccc1)C1CCCCC1 |  | inconclusive: 28.2 µM [quencher, side channel, partial curve] |
| CC1=C(C(=O)N2CCOCC2)C(c2cccc(C)c2)NC(=S)N1 (stereo unspecified) | inactive: 3.56% |  |
| COc1ccc(NC(=O)C2=Cc3cccc(OC)c3OC2)cc1 |  | inconclusive: 25.1 µM [quencher, side channel, partial curve] |
| Cc1c(Cl)cc(-n2cnnn2)cc1[N+](=O)[O-] |  | inconclusive: 15.8 µM [quencher, side channel, partial curve] |
| COc1ccc(-n2c(COc3ccc(C)cc3)nnc2SCc2ccc(C#N)cc2)cc1 | inactive: -6.87% |  |
| COc1cccc(N=c2oc3ccccc3cc2-c2nc3ccccc3[nH]2)c1 |  | inconclusive: 14.1 µM [quencher, side channel, partial curve] |
| COc1c2ccoc2nc2c(OC)c(OCC(OC(C)=O)C(C)(C)O)ccc12 (stereo unspecified) |  | inconclusive: 25.1 µM [quencher, side channel, partial curve] |
| Cc1cccc(NS(=O)(=O)c2ccc(-c3ccc(=O)[nH]n3)o2)c1 |  | inconclusive: 20 µM [quencher, side channel, partial curve] |
| Cc1[nH][nH]c(=O)c1C(c1cc([N+](=O)[O-])ccc1O)c1c(C)[nH][nH]c1=O |  | inconclusive: 22.4 µM [quencher, side channel, partial curve] |
| Cc1cccc2cc(-c3ccccc3)c(-c3ccccc3)c[n+]12 |  | inconclusive: 25.1 µM [quencher, side channel, single point] |
| O=C(Nc1ccccc1)c1cc([N+](=O)[O-])ccc1Cl |  | inconclusive: 8.91 µM [quencher, side channel, full curve] and inconclusive: 11.2 µM [quencher, side channel, partial curve] |
| O=C(c1c[nH]c2ccccc12)C(Cl)c1ccccc1 (stereo unspecified) | inactive: 4.14% |  |
| COc1cc(NC(=S)N(C)C)c(OC)cc1Cl | inactive: -3.51% |  |

| SMILES | activity change, negative = inhibition | Potency |
| --- | --- | --- |
| CSc1nc2ncc3c(n2n1)CC1c2ccccc2CCN1C3=O (stereo unspecified) | inactive: 15.3% |  |
| O=C(COC(=O)c1cnccn1)c1cccc([N+](=O)[O-])c1 |  | inconclusive: 2.51 µM [quencher, side channel, full curve] |
| Cc1ccc2c(Cl)cc(Cl)c(OCC(=O)N3CCCC3)c2n1 | inactive: 12% |  |
| COc1ccc(-n2cc3ccc([N+](=O)[O-])cc3n2)cc1 |  | inconclusive: 7.08 µM [quencher, side channel, partial curve] |
| CC(=O)c1c(C)nc(-c2ccc(Cl)cc2)nc1N=CN(C)C |  | inconclusive: 28.2 µM [fluorescent, side channel, partial curve] |
| Cc1ccc(NC(=O)CCN2C(=O)c3ccncc3C2=O)cc1 |  | inconclusive: 11.2 µM [quencher, side channel, partial curve] |
| c1ccc(-c2cc3c(nn2)CCc2nonc2-3)cc1 |  | inconclusive: 14.1 µM [quencher, side channel, partial curve] |
| COc1cc(CN2CCN(C(=O)CC(C)C)CC2)c([N+](=O)[O-])cc1OC |  | inconclusive: 35.5 µM [quencher, side channel, single point] |
| CCOC(=O)c1c(C)[nH]c(C(=O)OCc2ccccc2)c1C | inactive: -1.3% |  |
| Nc1cc(N)nc(SCC(=O)Nc2ccccc2)n1 |  | inconclusive: 39.8 µM [inhibitor, single point] |
| Cc1ccccc1OCc1nnc(SCC(=O)Nc2ccc3c(c2)oc2ccccc23)n1C | inactive: 4.53% |  |
| COc1ccc(Nc2ccc(N3C(=O)CCCC3=O)cc2[N+](=O)[O-])cc1OC |  | inconclusive: 7.94 µM [quencher, side channel, partial curve] |
| Cc1ccccc1NC(=O)/C(C#N)=C\c1cc(C)n(-c2ccc(C(=O)O)cc2)c1C |  | inconclusive: 4.47 µM [quencher, side channel, partial curve] |
| Cc1ccc(-n2ncc3c(N4CCC(C(N)=O)CC4)ncnc32)c(C)c1 |  | inconclusive: 17.8 µM [quencher, side channel, partial curve] |
| Cn1cccc1/C=C(/C#N)C(N)=S |  | inconclusive: 7.08 µM [quencher, side channel, partial curve] |
| O=C(Nc1ccc(F)cc1F)N1CCCN(c2ccc([N+](=O)[O-])cn2)CC1 |  | inconclusive: 14.1 µM [quencher, partial curve] |
| CC1=CS(=O)(=O)CC1Sc1nc2ccccc2[nH]1 (stereo unspecified) |  | inconclusive: 31.6 µM [quencher, side channel, single point] |
| O=C(N/N=C/c1cccc(OC(=O)c2ccc3c(c2)OCO3)c1)c1cncc(Br)c1 |  | inconclusive: 25.1 µM [quencher, side channel, partial curve] |
| CSc1nsc(/C=C/Nc2ccc(F)cc2F)c1C#N | inactive: 59.9% |  |
| CC1=NNC(=O)C1CC(=O)N/N=C(/C)c1cccc([N+](=O)[O-])c1 (stereo unspecified) |  | inconclusive: 15.8 µM [quencher, side channel, partial curve] |
| O=c1c2ccccc2nc2n1CCC2 |  | inconclusive: 39.8 µM [inhibitor, single point] |

| SMILES | activity change, negative = inhibition | Potency |
| --- | --- | --- |
| O=C(CNc1ccc(C(F)(F)F)cc1[N+](=O)[O-])OCC(=O)c1ccccc1 |  | inconclusive: 15.8 µM [quencher, side channel, partial curve] |
| CCc1cccc(NC(=O)c2cnn(-c3ccccc3)c2C)c1 | inactive: -6.54% |  |
| O=C(Cc1ccccc1)Nc1scc(-c2ccccc2)c1C(=O)N1CCOCC1 | inactive: -0.205% |  |
| Cc1cccn2c(=O)c3cc(C(=O)NC4CCCCC4)c(=N)n(CCN4CCOCC4)c3nc12 |  | inconclusive: 4.47 µM [quencher, side channel, partial curve] |
| CN(C)/C=C/c1oc2ccc(O)cc2c1[N+](=O)[O-] |  | inconclusive: 22.4 µM [quencher, side channel, partial curve, poor fit] |
| CCN(CC)C(=O)COc1cc(C)c(Cl)c(C)c1 |  | inconclusive: 1.78 µM [quencher, side channel, partial curve] |
| Cc1ccsc1/C=N\NC(=O)c1ccc2c(c1)OCO2 |  | inconclusive: 15.8 µM [quencher, side channel, partial curve] |
| Cc1cccn2c(=O)c(C=NCc3ccccc3)c(NCCO)nc12 |  | inconclusive: 28.2 µM [quencher, side channel, single point] |
| O=C1Cc2cc(S(=O)(=O)Nc3cccc([N+](=O)[O-])c3)cc3c2N1CCC3 |  | inconclusive: 20 µM [quencher, partial curve] |
| COc1ccc(OC)c(C(=O)c2oc3ccccc3c2NC(C)=O)c1 |  | inconclusive: 15.8 µM [quencher, side channel, partial curve] |
| Cc1nc2ccccc2c(=O)n1CCc1ccccc1 | inactive: -21.6% |  |
| CC1CCN(C2=C(NS(=O)(=O)c3ccc(Cl)cc3)C(=O)c3ccccc3C2=O)CC1 |  | inconclusive: 3.16 µM [quencher, side channel, partial curve] |
| CCN1C(=O)c2cccc3c(S(=O)(=O)NCc4ccco4)ccc1c23 |  | inconclusive: 14.1 µM [quencher, side channel, partial curve] |
| COc1cccc(C2/C(=C(/O)c3ccc4c(c3)CC(C)O4)C(=O)C(=O)N2c2nnc(C)s2)c1 (stereo unspecified) |  | inconclusive: 31.6 µM [quencher, side channel, single point] |
| Cc1ccc(/C=N/n2cnc3sc(C)c(C)c3c2=O)o1 |  | inconclusive: 28.2 µM [quencher, side channel, single point] |
| O=C(c1cc2cc(Cl)cc(Cl)c2oc1=O)N1CCOCC1 |  | inconclusive: 11.2 µM [quencher, side channel, partial curve] |
| Cc1ccc2nc(/C(C#N)=C/c3ccc(O)c(O)c3)[nH]c2c1 |  | inconclusive: 3.98 µM [quencher, side channel, full curve] |
| CCc1ccc(C(=O)CSC2=C(C#N)C(c3ccco3)C(C(C)=O)=C(C)N2)cc1 (stereo unspecified) |  | inconclusive: 25.1 µM [quencher, side channel, single point] |
| COc1ccc(Oc2nccc(-c3ccc(Cl)cc3)n2)cc1 |  | inconclusive: 39.8 µM [quencher, side channel, single point] |

From PubChem BioAssay AID2675 (National Center for Advancing Translational Sciences (NCATS), 2010)
